Results as given in PubChem BioAssay AID463173 (ICCB-Longwood Screening Facility, Harvard Medical School, 2010).
About 1,700 (3.3%) of roughly 52,000 compounds were called active. No stated cut-off is given here; in the data, active means survival mostly below about 52% (no sharp cut-off); inactive means mostly above about 56%. Some of the results follow.

The molecules below were run on Wild type (assay: S. aureus survival, RN4220 and DeltatarO strains – OD600, teichoic acid synthesis inhibitors, primary screen (AID 463173)). Settings: S. aureus RN4220 wild type/DeltatarO growth, OD600, 18 h, hits give low values, screened at 18.75 µg/mL (by protocol).
In the case of `CCOc1ccccc1NC(=O)Cn1c(=O)n(CCCCC(=O)NCCCOC)c(=O)c2ccccc21`, the survival is reported as inactive: 148%. In the case of `CCc1ccc(NC(=O)Cn2nnc(C(=O)NCCc3ccccc3)c2N)cc1`, the survival is reported as inactive: 101%. In the case of `O=C(NCc1cccc(F)c1)C1CCN(c2nn3cc(-c4ccc(F)cc4)nc3s2)CC1`, the survival is reported as inactive: 72%. `N#Cc1ccccc1Cn1c(=O)n(-c2ccccc2)c(=O)c2c3c(sc21)CCC3` was tested, and the survival was inactive: 81%. With `Cc1cccc(C)c1NC(=O)c1nc(SC(C)C)ncc1Cl` the survival was inactive: 106%. For `O=C(Nc1ccc(O)c(-c2nc3ccccc3o2)c1)c1ccc(-c2cccc(Cl)c2)o1`, the survival was inactive: 77%. With `CC1CCN(S(=O)(=O)c2ccc3c(c2)oc(=O)n3CC(=O)N2CCCCC2)CC1` the survival was inactive: 76%. For `Cc1ccccc1CNCCSc1nnnn1C`, the survival was inactive: 66%. In the case of `COCCCNC(=O)C1CCN(C(=O)c2ccc(-n3ccc4ccccc43)s2)CC1`, the survival is reported as inactive: 76%. With `Cc1cc(C)cc(N(CC(=O)Nc2ccc(C)cc2Cl)S(=O)(=O)c2c(C)[nH]c(=O)[nH]c2=O)c1` the survival was inactive: 60%. For `COc1cccc(CNC(=O)CSc2nnc(C)c3c(C)n(-c4ccccc4)nc23)c1`, the survival was inactive: 73%. `Cc1ccccc1Nc1c(-c2ccc(O)cc2)nc2c(C)cccn12` was tested, and the survival was inactive: 68%. In the case of `CCC(C(=O)Nc1ccc(F)cc1F)n1nc(-c2ccccc2)c2c(c1=O)CCCC2` (stereo not given), the survival is reported as inactive: 76%. In the case of `COc1ccc(NC(=O)CCS(=O)(=O)c2cc3c4c(c2)CCN4C(=O)CC3)cc1OC`, the survival is reported as inactive: 110%. With `Cc1nc(N)c(S(=O)(=O)c2ccccc2)c(Nc2ccc(Br)cc2)n1` the survival was inactive: 85%. In the case of `COc1cccc(/C=C/c2nc3ccccc3c(=O)n2-c2ccc(C)c(C)c2)c1OC`, the survival is reported as inactive: 70%. `COc1ccc(Cl)cc1S(=O)(=O)N1CCC(c2ccncc2)CC1` was tested, and the survival was inactive: 134%. `CC(=O)N1c2ccccc2CC1C(=O)N1CCN(c2cc(Cl)ccc2C)CC1` (stereo not given) was tested, and the survival was inactive: 92%. `CS(=O)(=O)N1CCN(S(C)(=O)=O)CC1` was tested, and the survival was inactive: 104%. In the case of `COc1ccc(NC(=O)c2ccco2)cc1NC(=O)COc1cc(C)ccc1C(C)C`, the survival is reported as inactive: 85%. For `COc1ccc(-c2nnc(SCC(=O)Nc3ccc(C)c(Cl)c3)nc2-c2ccc(OC)c(OC)c2)cc1OC`, the survival was inactive: 131%. For `O=C(c1ccc(F)cc1)N1CCN(CCc2ccncc2)CC1`, the survival was inactive: 86%. For `CCOc1ccc(NC(=O)c2c(NC(=O)c3ccncc3)sc3c2CCC(C(C)(C)C)C3)cc1` (stereo not given), the survival was inactive: 106%. In the case of `O=C(c1cccn1-c1nnc(N2CCCC2)s1)N1CCN(c2ccc(F)cc2)CC1`, the survival is reported as inactive: 128%. With `Cc1cccc(OCC(=O)NCc2ccc3c(c2)CCN3C(=O)c2ccc(Cl)cc2)c1` the survival was inactive: 112%. With `CC(=O)Nc1ccc(NC(=O)CN2C(=O)CCc3cc(S(=O)(=O)N4CCCCC4)ccc32)cc1` the survival was inactive: 70%. For `O=C(Cn1cc(SCc2ccc(Cl)cc2)c2ccccc21)N1CCCC1`, the survival was inactive: 97%. `Cc1cccc(CNC(=O)CN2CC(C)Sc3ccccc32)c1` (stereo not given) was tested, and the survival was inactive: 71%. `O=C(Nc1ccc(F)cc1)Nc1nnc(SCC(=O)N2CCCCC2)s1` was tested, and the survival was inactive: 73%. With `Cc1c(Cl)cccc1-n1nnc(-c2nc(-c3ccc4c(c3)OCO4)no2)c1C` the survival was inactive: 73%. With `COc1cccc(NC2=CC(c3ccc(C(C)C)cc3)N(c3cccc(OC)c3)C2=O)c1` (stereo not given) the survival was inactive: 76%. With `O=C(NCc1ccco1)C(C(=O)c1ccccc1)n1ccccc1=O` (stereo not given) the survival was inactive: 117%. For `Cc1c(C(=O)N(Cc2cccc(Cl)c2)Cc2ccco2)oc2ccccc12`, the survival was inactive: 72%. With `C=CCN(C)NC(=S)Nc1ccccc1` the survival was inactive: 103%. `COc1ccc(C)cc1NS(=O)(=O)c1cc(Br)cc2c1N(C(C)=O)C(C)C2` (stereo not given) was tested, and the survival was inactive: 73%. With `CCOc1ccc(S(=O)(=O)NCc2cccn2Cc2cccc(C)c2)cc1` the survival was inactive: 71%. With `CC(C)COc1ccc(C(=O)N(Cc2cccc(F)c2)C2CCS(=O)(=O)C2)cc1` (stereo not given) the survival was inactive: 83%. With `CCOC(=O)c1cnc2ccc(OCC)cc2c1NCCc1ccc(OC)c(OC)c1` the survival was inactive: 133%. `CCOC(=O)c1cc(-c2ccccc2)n(-c2cccc(C(=O)NC(C)(C)C)c2)c1C` was tested, and the survival was inactive: 118%. For `CCCn1c(=N)c(C(=O)NC2CCCCC2)cc2c(=O)n3cc(C)ccc3nc21`, the survival was inactive: 70%. In the case of `Cc1ccc(C)c(N2CCN(C(c3ccccc3)c3nnc(-c4ccccc4)o3)CC2)c1` (stereo not given), the survival is reported as active: 1%. `CCCn1c2ccccc2c2cnn(CC(=O)NCCCOC(C)C)c(=O)c21` was tested, and the survival was active: -6%. In the case of `CCN1CCc2c(sc(-n3cccc3)c2C(CCC(C)C)NC(=O)NCCC(=O)OC)C1` (stereo not given), the survival is reported as inactive: 73%. With `CCc1cccc(C)c1NC(=O)C(NS(=O)(=O)c1ccc2c(c1)CCC(=O)N2)c1ccccc1` (stereo not given) the survival was inactive: 77%. In the case of `COc1ccc(CN(Cc2ccco2)S(=O)(=O)c2ccc(S(=O)(=O)N3CCCC3)cc2)cc1`, the survival is reported as inactive: 111%. For `Cc1ccc(NS(=O)(=O)c2c(C)nc3sc(C)c(C)n3c2=O)cc1F`, the survival was inactive: 91%. For `O=C(CSc1nc2ccsc2c(=O)n1-c1ccc(Br)cc1)NCc1ccc(Cl)cc1`, the survival was inactive: 81%. In the case of `O=C(NCCCN1CCOCC1)C1CC(c2ccccc2O)=NO1` (stereo not given), the survival is reported as inactive: 125%. In the case of `COc1ccc(CCNC(=O)Cc2ccc(NC(=O)N3CCSc4ncccc43)cc2)cc1OC`, the survival is reported as inactive: 69%. With `Cc1cccc(NC(=O)c2cc3c([nH]c2=O)CC(c2ccccc2)CC3=O)c1` (stereo not given) the survival was active: -3%. `COc1cccc(-c2nc(CS(=O)(=O)CC(=O)Nc3ccc(C)c(Cl)c3)c(C)o2)c1` was tested, and the survival was inactive: 126%. `COc1cccc(CNC(=O)Cn2cccc2C(=O)c2ccccc2)c1` was tested, and the survival was inactive: 89%. `COc1ccc(C(=O)N2CCN(c3nc4c(OC)cccc4s3)CC2)cc1OC` was tested, and the survival was inactive: 64%. With `O=C(Cn1c(=O)n(Cc2ccc(F)cc2)c(=O)c2sc3ccccc3c21)Nc1ccc(F)cc1F` the survival was inactive: 80%. In the case of `COc1cc(C(=O)NCc2nc(-c3ccc(Cl)cc3)no2)cc(OC)c1OC`, the survival is reported as inactive: 86%. For `COC(=O)CCNC(=O)N1CCN(c2nnc(C)c3c(C)n(-c4ccccc4)nc23)CC1`, the survival was inactive: 78%. With `COc1ccc(OC)c(-n2c(-c3cc(-c4ccco4)[nH]n3)n[nH]c2=S)c1` the survival was inactive: 107%. In the case of `CCOc1ccc(NC(=O)C2CC(=O)NC(N3CCCCC3)=N2)cc1` (stereo not given), the survival is reported as inactive: 100%. With `CCc1ccc(CNC(=O)C2COc3ccccc3C2)cc1` (stereo not given) the survival was inactive: 88%. With `Cc1cccc(CN2C(=O)c3ccccc3S(=O)(=O)c3ccc(C(=O)OCC4CCCO4)cc32)c1` (stereo not given) the survival was inactive: 72%. `CCOc1ccc(C2CC(=O)Nc3c2c(=O)[nH]c2ncnn32)cc1` (stereo not given) was tested, and the survival was inactive: 68%. `CCn1c(CNC(=O)c2ccc(OC)cc2)nnc1SCC(=O)Nc1ccc(F)cc1` was tested, and the survival was inactive: 120%. `CCc1ccc(C(=O)c2cn(CC(=O)Nc3ccc(F)cc3)c3ccc(F)cc3c2=O)cc1` was tested, and the survival was inactive: 70%. In the case of `Cc1cccc(C(=O)Nc2cc(-c3ccccc3F)nn2-c2ccccc2)c1`, the survival is reported as inactive: 59%. In the case of `CCOC(=O)c1cc(S(=O)(=O)N2CCN(c3ccccc3OC)CC2)[nH]n1`, the survival is reported as inactive: 124%. With `Cc1ccc(N2CC(NC(=O)C3CCCCC3)CC2=O)cc1` (stereo not given) the survival was inactive: 73%. For `O=C(NCc1ccco1)c1c2c(nc3ccccc13)-c1ccccc1CC2`, the survival was inactive: 121%. `COc1ccc(NC(=O)CSCc2cc(=O)c3cc(Cl)ccc3[nH]2)cc1` was tested, and the survival was inactive: 73%. In the case of `CCCC1(C)NC(=O)c2ccccc2O1` (stereo not given), the survival is reported as inactive: 108%. With `COc1ccc(-c2cc(C(=O)Nc3c(C)nn(Cc4ccccc4C)c3C)no2)cc1` the survival was inactive: 87%. With `COc1cc(NS(=O)(=O)c2cc3[nH]c(=O)[nH]c3cc2C)cc(OC)c1OC` the survival was inactive: 32%. For `Cc1ccc2onc(CNC(=O)N3CCN(c4cc(Cl)ccc4C)CC3)c2c1`, the survival was inactive: 61%. `CC(CNC(=O)c1cc2cc(S(=O)(=O)N3CCCCC3)ccc2n1C)c1ccccc1` (stereo not given) was tested, and the survival was inactive: 55%. In the case of `Cc1ccc(CCNC(=O)c2sc3nc4n(c(=O)c3c2C)CCCC4)cc1`, the survival is reported as inactive: 87%. For `COc1ccccc1CNC(=O)c1ccc2c(c1)nc(C)n2-c1cccc(C)c1`, the survival was inactive: 88%. With `O=C1CCC(=O)N1CN1CCN(c2ccccc2)CC1` the survival was inactive: 113%. In the case of `Cc1ccc2c(c1)-c1c(cnc3cc(-c4ccc(Cl)cc4)nn13)CO2`, the survival is reported as inactive: 61%. For `COc1ccc(NC(=O)C(C)N2Cc3ccccc3C2=O)cc1OC` (stereo not given), the survival was inactive: 75%. For `COc1ccc(C(C)=O)cc1CSc1nc(NCc2ccccc2)c2ccccc2n1`, the survival was inactive: 85%. `Cc1cccc(OCC(=O)Nc2ccc(NC(=O)c3ccco3)cc2)c1` was tested, and the survival was inactive: 112%. For `Cc1ccc2c(c1)c(=O)c1ccccc1n2CCCC(=O)Nc1ccc(C)c(C)c1`, the survival was inactive: 81%. In the case of `CC(C)CC(=O)n1nc(-c2ccco2)nc1NCc1ccc(Cl)cc1`, the survival is reported as inactive: 83%. With `CC1CCCCN1C(=O)CSc1nnc(CNc2ccc(Cl)cc2)o1` (stereo not given) the survival was inactive: 101%. In the case of `CC(C)OC(=O)c1ccc(NC(=O)CSc2nc(-c3cccs3)cc(C(F)(F)F)n2)cc1`, the survival is reported as inactive: 75%. With `Cc1ccc(COC(=O)c2[nH]c3c(c2C)C(=O)CC(c2ccc(Cl)cc2)C3)cc1` (stereo not given) the survival was inactive: 84%. With `COc1ccc(Cn2c(C(=O)O)c(CNCc3ccc(C)o3)c3ccc(OC)cc32)cc1` the survival was inactive: 79%. For `N=C(N)N=Nc1ccc(O)cc1`, the survival was inactive: 104%. `CCOc1ccc(NC(=O)c2ccc3nc(C(C)C)oc3c2)cc1` was tested, and the survival was inactive: 70%. For `COc1ccccc1OC(C)C(=O)N1CCC(c2nc3ccccc3s2)CC1` (stereo not given), the survival was active: -2%. `COc1ccc(Cn2c(=O)c3ccccc3n3c(-c4ccc(C)cc4)nnc23)cc1` was tested, and the survival was inactive: 89%.
